Test results as given in the supplement of paper PMC7826260.
The list shows a part of the results. The data describe in vitro nicking of single-stranded DNA by Rep domains (1 h at 37 °C, 3 µM enzyme); the outer parts of the 90-letter strands are left off. The score is log2 (uncut reads / reads without enzyme); the lower, the more was cut; hits are not called. Counts are relative to all reads; where an enzyme cuts many sequences, the uncut ones exceed 0.

Tests used:
Test in all cases: uncleaved DNA left, log2 of reads against the no-enzyme library (log2 ratio); higher = less cleavage (more negative = more Rep cleavage of the k-mer); sequences stand for … in CTCGTCCG…ACCGGAGA
[1] = system: T1, Rep nickase domain of Muscovy duck circovirus
T1 sequence (protein, residues 1-111, tag omitted): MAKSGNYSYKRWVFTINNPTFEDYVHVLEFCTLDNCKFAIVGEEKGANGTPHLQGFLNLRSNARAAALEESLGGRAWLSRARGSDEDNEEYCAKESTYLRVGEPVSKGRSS
Protocol: (§1)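 A pool of 90-nt single-stranded DNAs with seven random bases just before the constant AC of the nick site (name = the seven bases) was cut by 3 µM recombinant His6-SUMO-tagged Rep nickase domain (300 nM DNA, 50 mM HEPES pH 8.0, 50 mM NaCl, 1 mM MnCl2, 1 h, 37 °C, three replicates). Uncut DNA was amplified and sequenced.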

[2] = system: T2, Rep nickase domain of banana bunchy top virus
T2 sequence (protein, residues 1-94, tag omitted): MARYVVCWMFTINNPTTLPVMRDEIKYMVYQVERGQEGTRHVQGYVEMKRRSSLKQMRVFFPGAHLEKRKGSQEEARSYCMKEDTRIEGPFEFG
Protocol: as §1

[3] = system: T3, Rep nickase domain of cabbage leaf curl virus
T3 sequence (protein, residues 1-116, tag omitted): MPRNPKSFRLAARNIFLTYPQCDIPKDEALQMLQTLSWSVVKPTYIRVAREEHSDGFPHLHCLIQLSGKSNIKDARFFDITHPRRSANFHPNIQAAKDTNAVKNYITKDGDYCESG
Protocol: as §1

[4] = system: T4, Rep nickase domain of chickpea chlorotic dwarf virus
T4 sequence (protein, residues 1-124, tag omitted): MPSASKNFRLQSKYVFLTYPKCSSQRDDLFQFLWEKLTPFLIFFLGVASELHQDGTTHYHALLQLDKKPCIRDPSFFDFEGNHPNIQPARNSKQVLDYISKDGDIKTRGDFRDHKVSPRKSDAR
Protocol: as §1

[5] = system: T5, Rep nickase domain of faba bean necrotic yellows virus
T5 sequence (protein, residues 1-98, tag omitted): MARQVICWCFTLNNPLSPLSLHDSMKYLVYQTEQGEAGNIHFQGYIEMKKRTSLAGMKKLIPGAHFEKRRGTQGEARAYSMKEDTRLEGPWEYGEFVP
Protocol: as §1

[6] = system: T6, Rep nickase domain of maize striate mosaic virus
T6 sequence (protein, residues 1-117, tag omitted): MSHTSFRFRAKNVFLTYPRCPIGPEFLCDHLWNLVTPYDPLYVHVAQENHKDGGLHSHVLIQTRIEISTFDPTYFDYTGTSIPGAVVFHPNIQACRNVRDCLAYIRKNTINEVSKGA
Protocol: as §1

[7] = system: T7, Rep nickase domain of porcine circovirus 2
T7 sequence (protein, residues 2-116, tag omitted): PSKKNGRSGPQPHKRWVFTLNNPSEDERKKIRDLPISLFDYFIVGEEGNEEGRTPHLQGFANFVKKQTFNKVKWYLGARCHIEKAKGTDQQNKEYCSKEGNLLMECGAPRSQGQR
Protocol: as §1

[8] = system: T8, Rep nickase domain of tomato golden mosaic virus
T8 sequence (protein, residues 1-124, tag omitted): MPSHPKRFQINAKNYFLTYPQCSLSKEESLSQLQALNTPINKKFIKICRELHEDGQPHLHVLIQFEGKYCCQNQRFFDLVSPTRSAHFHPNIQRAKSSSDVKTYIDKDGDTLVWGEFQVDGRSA
Protocol: as §1

[9] = system: T9, Rep nickase domain of tomato yellow leaf curl virus
T9 sequence (protein, residues 1-136, tag omitted): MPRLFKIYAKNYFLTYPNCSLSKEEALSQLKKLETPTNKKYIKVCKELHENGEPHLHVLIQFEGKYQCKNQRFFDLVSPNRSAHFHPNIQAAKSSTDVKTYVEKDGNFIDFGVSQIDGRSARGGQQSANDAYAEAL
Protocol: as §1

[10] = system: T10, Rep nickase domain of wheat dwarf virus
T10 sequence (protein, residues 1-137, tag omitted): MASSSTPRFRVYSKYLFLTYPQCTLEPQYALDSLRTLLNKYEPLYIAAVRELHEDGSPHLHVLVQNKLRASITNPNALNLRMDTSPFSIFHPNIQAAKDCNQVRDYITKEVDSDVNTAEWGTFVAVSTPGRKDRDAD
Protocol: as §1

Sequence | uncleaved DNA left (log2) [1] | uncleaved DNA left (log2) [2] | uncleaved DNA left (log2) [3] | uncleaved DNA left (log2) [4] | uncleaved DNA left (log2) [5] | uncleaved DNA left (log2) [6] | uncleaved DNA left (log2) [7] | uncleaved DNA left (log2) [8] | uncleaved DNA left (log2) [9] | uncleaved DNA left (log2) [10]
CATTAGG | 0.155 | 0.13 | 0.00705 | 0.552 | -0.0383 | -0.258 | 0.171 | 0.104 | -0.00972 | 0.106
CAGAGGA | 0.0921 | 0.124 | 0.31 | 0.453 | 0.17 | -0.338 | 0.0167 | 0.197 | 0.048 | 0.103
TAGAGGC | 0.0537 | -0.0462 | 0.134 | 0.0975 | 0.0442 | -0.569 | -0.00898 | 0.0148 | 0.0592 | 0.0103
TGTGGAT | 0.0129 | 0.0374 | 0.312 | 1.42 | -0.0343 | 1.86 | 0.0971 | 0.208 | -0.199 | -0.0373
GTGATAT | 0.0151 | 0.179 | 0.62 | 1.5 | -0.0361 | 2.04 | 0.106 | 0.146 | 0.126 | 0.189
GGTTACG | 0.147 | 0.0757 | -0.435 | -0.298 | 0.0705 | -0.378 | 0.239 | 0.109 | 0.082 | 0.0216
TCGCTCC | -0.26 | -0.0918 | 0.198 | 0.186 | -0.172 | 0.579 | -0.0273 | -0.209 | -0.1 | -0.113
TCATTTT | -3.65 | -0.257 | -3.03 | -3.26 | -0.0547 | -1.46 | -3.27 | -0.473 | -0.000551 | -0.717
CGACATT | -0.195 | -0.0257 | 0.398 | 1.21 | -0.115 | 1.73 | -0.0351 | -0.326 | -0.101 | 0.018
CAGTAGT | -2.21 | -3.46 | -0.597 | -1.62 | -3.18 | -0.926 | -4.66 | -0.231 | -0.0813 | -0.152
GTTGAGA | 0.00127 | 0.0134 | 0.22 | 0.732 | 0.115 | 0.673 | 0.0888 | 0.0733 | 0.0456 | 0.0491
GGAGATT | 0.00606 | 0.0872 | 0.465 | 1.33 | 0.0707 | 1.55 | -0.0307 | -0.0162 | 0.112 | 0.0905
CTAGGTC | -0.0248 | -0.033 | 0.291 | 0.723 | -0.0134 | 0.828 | -0.18 | -0.00743 | 0.0303 | 0.00131
GCCCCCT | -0.0833 | 0.0155 | 0.0199 | -0.722 | -0.0244 | 0.113 | -0.269 | -0.0249 | -0.0581 | -0.00835
AATATGT | 0.0614 | -0.193 | -0.563 | -1.55 | 0.0185 | -0.854 | -3.18 | 0.0281 | -0.0394 | 0.0348
